Results are given in words; binding and its absence hold for the method and conditions named. For some of these results: Binding seen in cells or lysates may run through a third protein. Some binding calls cover weakened binding; strength is not graded here. Sequences can lack the tags named with a protein.

Chains of the proteins cited; added tags and fusions are not shown. Lines headed by an entry give the natural chain unless they say otherwise; changes in a name come on top.
UniProt Q96RY7: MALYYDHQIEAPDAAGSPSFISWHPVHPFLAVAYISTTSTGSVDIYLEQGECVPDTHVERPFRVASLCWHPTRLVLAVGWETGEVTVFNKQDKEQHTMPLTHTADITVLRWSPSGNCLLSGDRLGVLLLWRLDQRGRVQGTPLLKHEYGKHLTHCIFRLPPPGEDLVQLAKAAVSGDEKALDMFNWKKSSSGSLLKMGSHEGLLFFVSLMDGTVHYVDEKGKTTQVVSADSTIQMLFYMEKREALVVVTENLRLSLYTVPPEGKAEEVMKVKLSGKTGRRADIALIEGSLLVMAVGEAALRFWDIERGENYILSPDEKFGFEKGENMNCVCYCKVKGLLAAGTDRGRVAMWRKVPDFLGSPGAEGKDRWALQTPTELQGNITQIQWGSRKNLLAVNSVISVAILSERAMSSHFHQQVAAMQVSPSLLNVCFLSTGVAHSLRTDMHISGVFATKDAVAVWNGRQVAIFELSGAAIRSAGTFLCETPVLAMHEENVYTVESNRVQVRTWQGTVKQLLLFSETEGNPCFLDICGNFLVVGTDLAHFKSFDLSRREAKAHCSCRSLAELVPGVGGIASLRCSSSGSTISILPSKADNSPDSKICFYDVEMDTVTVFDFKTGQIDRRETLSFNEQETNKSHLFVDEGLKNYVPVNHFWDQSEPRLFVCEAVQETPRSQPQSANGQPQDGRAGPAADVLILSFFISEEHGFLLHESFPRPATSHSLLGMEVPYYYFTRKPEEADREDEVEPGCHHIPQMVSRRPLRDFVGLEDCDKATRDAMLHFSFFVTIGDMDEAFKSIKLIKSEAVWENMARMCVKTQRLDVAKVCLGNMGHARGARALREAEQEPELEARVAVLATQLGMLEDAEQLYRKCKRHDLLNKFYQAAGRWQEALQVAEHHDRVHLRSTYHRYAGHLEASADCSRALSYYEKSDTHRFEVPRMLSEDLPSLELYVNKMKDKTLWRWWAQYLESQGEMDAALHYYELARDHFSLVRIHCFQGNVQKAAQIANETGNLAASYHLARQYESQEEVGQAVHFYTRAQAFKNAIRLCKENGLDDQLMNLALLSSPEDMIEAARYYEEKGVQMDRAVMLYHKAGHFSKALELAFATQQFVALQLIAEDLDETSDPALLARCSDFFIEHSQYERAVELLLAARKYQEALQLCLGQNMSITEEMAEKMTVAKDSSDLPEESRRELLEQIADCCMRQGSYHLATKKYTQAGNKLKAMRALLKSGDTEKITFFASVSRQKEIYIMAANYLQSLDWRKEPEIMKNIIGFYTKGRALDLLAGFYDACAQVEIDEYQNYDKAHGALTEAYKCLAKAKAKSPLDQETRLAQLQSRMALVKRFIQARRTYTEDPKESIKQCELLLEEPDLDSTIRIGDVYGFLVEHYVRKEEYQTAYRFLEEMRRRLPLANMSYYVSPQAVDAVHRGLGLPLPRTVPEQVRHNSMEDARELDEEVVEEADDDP

Results on 5 molecules are retold here after article PMC6787559.

The target in one experiment is T1, GFP-tagged IFT52 (UniProt Q9Y366).
T1 sequence: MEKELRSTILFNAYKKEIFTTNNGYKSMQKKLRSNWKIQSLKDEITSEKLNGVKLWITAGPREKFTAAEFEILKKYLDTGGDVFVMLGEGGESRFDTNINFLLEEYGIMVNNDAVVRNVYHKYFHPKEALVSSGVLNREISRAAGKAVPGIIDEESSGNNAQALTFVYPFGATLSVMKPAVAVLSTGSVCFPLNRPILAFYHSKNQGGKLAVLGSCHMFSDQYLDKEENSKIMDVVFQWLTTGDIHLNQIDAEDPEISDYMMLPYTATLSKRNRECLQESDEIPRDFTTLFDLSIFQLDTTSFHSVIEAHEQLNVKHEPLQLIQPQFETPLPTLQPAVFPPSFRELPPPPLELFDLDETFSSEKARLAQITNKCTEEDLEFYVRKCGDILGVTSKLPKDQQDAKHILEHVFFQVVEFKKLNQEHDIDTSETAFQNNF
The experiment in a line: co-IP; GFP-Trap nanobody immunoprecipitation; lysates of co-transfected HEK293T cells; GFP-tagged protein immobilised on GFP-Trap agarose beads, 2 h at 4 C; 10 mM Tris-Cl pH 7.5, 150 mM NaCl, 0.5 mM EDTA; FLAG-tagged protein detected by Western blot.

For another experiment, the target named is T2, GFP-tagged IFT57 (UniProt Q9NWB7).
T2 sequence: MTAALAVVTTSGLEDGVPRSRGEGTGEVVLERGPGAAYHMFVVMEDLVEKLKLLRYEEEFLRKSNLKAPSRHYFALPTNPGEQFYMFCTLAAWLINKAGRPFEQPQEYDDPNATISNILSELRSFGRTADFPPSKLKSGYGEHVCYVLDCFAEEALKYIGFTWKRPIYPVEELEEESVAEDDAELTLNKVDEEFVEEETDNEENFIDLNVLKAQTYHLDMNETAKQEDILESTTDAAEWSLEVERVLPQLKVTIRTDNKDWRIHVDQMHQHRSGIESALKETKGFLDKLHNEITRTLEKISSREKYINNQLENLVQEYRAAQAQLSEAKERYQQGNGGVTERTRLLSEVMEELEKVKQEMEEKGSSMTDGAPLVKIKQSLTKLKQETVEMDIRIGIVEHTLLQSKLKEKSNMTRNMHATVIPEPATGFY
Described as above.

The target of experiment [1] is T3, full length IFT81 fused to the GAL4 DNA-binding domain (UniProt Q8WYA0).
T3 sequence: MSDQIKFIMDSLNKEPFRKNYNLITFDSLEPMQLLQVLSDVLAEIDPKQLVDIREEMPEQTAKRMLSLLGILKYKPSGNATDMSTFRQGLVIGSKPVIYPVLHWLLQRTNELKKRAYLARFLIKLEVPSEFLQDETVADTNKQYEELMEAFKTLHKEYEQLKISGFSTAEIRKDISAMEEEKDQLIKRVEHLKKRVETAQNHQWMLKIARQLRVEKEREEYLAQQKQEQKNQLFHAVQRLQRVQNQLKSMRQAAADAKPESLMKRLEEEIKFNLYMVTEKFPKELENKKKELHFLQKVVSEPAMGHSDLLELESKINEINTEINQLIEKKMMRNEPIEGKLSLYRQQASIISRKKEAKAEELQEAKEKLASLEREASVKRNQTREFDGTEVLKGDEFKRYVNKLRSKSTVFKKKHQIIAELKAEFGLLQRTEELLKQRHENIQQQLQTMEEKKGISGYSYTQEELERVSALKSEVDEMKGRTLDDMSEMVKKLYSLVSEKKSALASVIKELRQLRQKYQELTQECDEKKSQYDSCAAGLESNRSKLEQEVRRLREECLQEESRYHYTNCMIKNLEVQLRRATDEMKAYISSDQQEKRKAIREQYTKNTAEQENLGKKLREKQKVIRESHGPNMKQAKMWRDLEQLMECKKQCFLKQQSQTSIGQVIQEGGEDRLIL
Nature of the experiment: two-hybrid; 1:1 Y2H; full length IFTs fused to GAL4 DNA-binding domain as bait, full length SANS fused to GAL4 activation domain as prey; strains PJ694alpha and PJ694A mated; selection on -LWHA media, X-beta-gal filter lift assay; three assays for each IFT.

The target in experiment [2] is IFT140 (IFT-A complex) in the 1:1 Y2H (UniProt Q96RY7). Nature of the experiment: two-hybrid; 1:1 Y2H of SANS and IFT140, data not shown; initial, not validated.
The target in the next experiment is T4, GFP-tagged SANS (human) (UniProt Q495M9).
T4 sequence: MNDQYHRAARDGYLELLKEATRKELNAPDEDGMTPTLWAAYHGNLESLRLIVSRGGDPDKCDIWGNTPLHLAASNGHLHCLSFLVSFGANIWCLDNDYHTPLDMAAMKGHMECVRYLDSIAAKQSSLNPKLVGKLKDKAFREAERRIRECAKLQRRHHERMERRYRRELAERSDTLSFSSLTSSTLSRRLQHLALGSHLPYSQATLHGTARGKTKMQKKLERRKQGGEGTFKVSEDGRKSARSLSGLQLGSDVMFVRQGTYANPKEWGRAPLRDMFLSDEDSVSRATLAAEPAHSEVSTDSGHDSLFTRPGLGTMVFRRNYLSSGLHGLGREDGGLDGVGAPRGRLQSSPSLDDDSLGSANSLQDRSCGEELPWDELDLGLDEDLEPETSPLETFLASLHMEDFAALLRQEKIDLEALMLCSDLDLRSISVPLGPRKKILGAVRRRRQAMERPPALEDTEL
Nature of the experiment: co-IP; GFP-Trap nanobody immunoprecipitation; lysates of co-transfected HEK293T cells; GFP-tagged protein immobilised on GFP-Trap agarose beads, 2 h at 4 C; 10 mM Tris-Cl pH 7.5, 150 mM NaCl, 0.5 mM EDTA; FLAG-tagged protein detected by Western blot.

In another experiment the target is T5, PalmMyr-CFP-SANS (human) (UniProt Q495M9).
T5 sequence: T4 sequence
Nature of the experiment: membrane targeting assay; HEK293T cells co-transfected with PalmMyr-CFP-SANS or PalmMyr-CFP and 3xFLAG-IFTs; anti-FLAG immunofluorescence 24 h after transfection; recruitment to the plasma membrane.

B1: 3xFLAG-tagged SANS Nterm (aa 2-126) (domain or fragment, UniProt Q495M9 2-126)
chain: NDQYHRAARDGYLELLKEATRKELNAPDEDGMTPTLWAAYHGNLESLRLIVSRGGDPDKCDIWGNTPLHLAASNGHLHCLSFLVSFGANIWCLDNDYHTPLDMAAMKGHMECVRYLDSIAAKQSS
With B1, the binding result with GFP-tagged IFT52 and with GFP-tagged IFT57 was “binds” throughout.

B2: 3xFLAG-tagged SANS CENT (aa 125-388) (domain or fragment, UniProt Q495M9 125-388)
chain: SSLNPKLVGKLKDKAFREAERRIRECAKLQRRHHERMERRYRRELAERSDTLSFSSLTSSTLSRRLQHLALGSHLPYSQATLHGTARGKTKMQKKLERRKQGGEGTFKVSEDGRKSARSLSGLQLGSDVMFVRQGTYANPKEWGRAPLRDMFLSDEDSVSRATLAAEPAHSEVSTDSGHDSLFTRPGLGTMVFRRNYLSSGLHGLGREDGGLDGVGAPRGRLQSSPSLDDDSLGSANSLQDRSCGEELPWDELDLGLDEDLEPE
In the case of B2, the binding entry with GFP-tagged IFT52 and with GFP-tagged IFT57 was “binds weakly” throughout.

B3: SANS full length fused to the GAL4 activation domain (protein, UniProt Q495M9 1-461)
chain: T4 sequence
Consider B3, for which the binding entry in experiment [1] is recorded as “no binding”; in experiment [2] it was “binds”.

B4: 3xFLAG-tagged SANS full length (protein, UniProt Q495M9 1-461)
chain: T4 sequence
For B4, the binding entry with GFP-tagged IFT52 and in the experiment with GFP-tagged SANS (human) was “binds” each time.

B5: 3xFLAG-IFT52 (protein, UniProt Q9Y366 1-437)
chain: T1 sequence
Turning to B5, the binding result with PalmMyr-CFP-SANS (human) and with GFP-tagged SANS (human) was “binds” in each case.
